Results reported in paper PMC4336329 (PLoS ONE, 2015).
Out of some 310,000 compounds screened, about 2,200 (0.71%) showed an effect of 50% or more. The effect is printed as a negative number. Some of the results follow.

Target: human ether-à-go-go-related gene (hERG) potassium channel (human, UniProt Q12809)
Assay: primary screen, population patch clamp on CHO cells stably expressing hERG

human ether-à-go-go-related gene (hERG) potassium channel, sequence (Q12809 whole entry, looked up): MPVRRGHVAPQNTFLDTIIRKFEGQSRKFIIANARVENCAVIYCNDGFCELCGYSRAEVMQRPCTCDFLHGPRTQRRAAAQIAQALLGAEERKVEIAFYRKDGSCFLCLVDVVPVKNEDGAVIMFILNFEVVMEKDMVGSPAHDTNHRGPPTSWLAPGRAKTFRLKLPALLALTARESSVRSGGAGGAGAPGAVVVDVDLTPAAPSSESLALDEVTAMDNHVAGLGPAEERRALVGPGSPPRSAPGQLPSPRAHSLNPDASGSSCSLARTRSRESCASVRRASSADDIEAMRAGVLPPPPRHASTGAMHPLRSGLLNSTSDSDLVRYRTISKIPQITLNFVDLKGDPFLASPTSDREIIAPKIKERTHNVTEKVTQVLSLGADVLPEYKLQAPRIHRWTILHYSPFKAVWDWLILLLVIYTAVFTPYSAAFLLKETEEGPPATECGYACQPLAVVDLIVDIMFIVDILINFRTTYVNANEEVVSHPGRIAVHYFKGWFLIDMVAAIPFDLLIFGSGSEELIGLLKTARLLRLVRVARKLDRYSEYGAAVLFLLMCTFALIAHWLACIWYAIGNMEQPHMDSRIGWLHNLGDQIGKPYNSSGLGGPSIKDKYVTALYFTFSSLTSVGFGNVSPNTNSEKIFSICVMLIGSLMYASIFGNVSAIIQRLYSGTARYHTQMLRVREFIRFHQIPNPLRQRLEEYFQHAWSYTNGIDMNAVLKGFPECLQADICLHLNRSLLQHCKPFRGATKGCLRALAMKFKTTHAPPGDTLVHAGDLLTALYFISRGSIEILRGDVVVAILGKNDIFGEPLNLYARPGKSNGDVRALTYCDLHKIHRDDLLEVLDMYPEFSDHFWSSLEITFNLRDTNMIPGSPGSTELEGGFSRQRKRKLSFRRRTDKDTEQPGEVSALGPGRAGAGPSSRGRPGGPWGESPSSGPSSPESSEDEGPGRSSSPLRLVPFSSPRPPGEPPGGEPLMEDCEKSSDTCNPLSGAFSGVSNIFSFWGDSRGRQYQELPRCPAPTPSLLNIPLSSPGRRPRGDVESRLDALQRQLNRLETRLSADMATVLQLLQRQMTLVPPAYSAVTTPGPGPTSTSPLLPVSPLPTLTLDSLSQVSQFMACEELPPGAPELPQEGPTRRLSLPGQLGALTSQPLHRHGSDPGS

SMILES	hERG current change (%, negative = inhibition) at 1uM [%]
CC(C)(C)c1nnc2sc(SCC(=O)c3ccc4c(c3)OCCO4)nn2c1=O	8.46
CN(CCNC(=O)CN1C(=O)CSc2ccc(S(=O)(=O)N3CCCC3)cc21)Cc1ccccc1	5.11
CC(=O)Nc1ccccc1C(=O)C(=O)O	6.28
CC(NC(=O)C(=O)N1CCCCC1)C(c1cccs1)N1CCN(C)CC1 (stereo not shown)	16.4
COCCCn1c(SCC(=O)N(C)C)nnc1-c1ccccc1	16.7
NS(=O)(=O)c1cc(C(=O)OCC(=O)c2ccccc2)c(Cl)cc1Cl	20.4
CC(C)Cn1c(N)c(C(=O)COC(=O)C2Cc3ccccc3CN2S(C)(=O)=O)c(=O)n(C)c1=O (stereo not shown)	-8.91
COc1ccc(CNc2nc3ccccc3n2CCN2CCCCC2)c(OC)c1	-28.3
O=C(c1ccco1)N1CCN(c2ccnc3cc(Cl)ccc23)CC1	-63.6
O=C(c1cccc(S(=O)(=O)N2CCc3ccccc3C2)c1)N1CCN(c2ccc(O)cc2)CC1	10.2
Cc1ccc2cc3c(N)c(C(=O)N4CCOCC4)sc3nc2c1	7.38
CCc1ccc(S(=O)(=O)NC(=S)Nc2ccccc2)cc1	11.4
CCOC(=O)CN(Cc1sccc1C)C(=O)Nc1ccc(OC)cc1OC	13.9
Cc1[nH]c2ccccc2c1-c1csc(NC(=O)CSCC(=O)O)n1	2.01
O=Cc1ccc(-c2ccccc2C(=O)O)o1	13
O=C(NCC(=O)N1CCCCCCC1)c1ccc(Cl)cc1	6.55
CCOC(=O)[C@H]1[C@H]2COc3ccc(OC)cc3[C@@H]2N2C(=O)c3ccc(Cl)cc3NC(=O)[C@@]12C	-1.11
O=C(Oc1cccc(/C=N/NC(=O)c2ccccn2)c1)c1ccc([N+](=O)[O-])cc1	17.5
Cc1cc(=O)[nH]c(N/N=C/c2ccc([N+](=O)[O-])cc2)n1	4.34
CCCN1C(=O)C(O)(C/C(C)=N/O)c2ccccc21 (stereo not shown)	2.73
O=C(COc1ccccc1C(=O)NCc1ccccc1)Nc1ccccc1	9.27
COc1ccccc1NC(=O)CCS(=O)(=O)c1ccc2c(c1)NC(=O)C(C)S2 (stereo not shown)	10

SMILES	hERG current change (%, negative = inhibition) at 1uM [%]
CCC(Cc1ccccc1)NC(=O)C1=C(C)C(=O)OC12CCC(C)CC2 (stereo not shown)	5.82
O=C1Cc2ccccc2C(c2ccc(Cl)cc2Cl)N1 (stereo not shown)	-2.05
CS(=O)(=O)N(CC(=O)NCc1ccco1)c1ccc(OCc2ccccc2)cc1	13.9
CC(=O)NCC(=O)OCC(=O)Nc1nc(-c2ccccc2)cs1	13.7
CC(C)=CC(=O)OCC(=O)Nc1ccc(Cl)cn1	20.8
COc1cc2c(cc1OC)C(C(=O)N1CCC3(CC1)OCCO3)C(c1ccccc1F)N(C)C2=O (stereo not shown)	2.64
O=c1[nH]oc(O)c1-c1ncc(C(F)(F)F)cc1Cl	8.75
O=C(NC1CCCCC1)C(c1ccncc1)N(Cc1ccc(F)cc1)C(=O)c1ccccn1 (stereo not shown)	8.75
O=c1cnnc(Nc2ccc(Cl)c(C(F)(F)F)c2)[nH]1	12.2
COc1cccc(OC)c1NC(=O)NC(=O)c1c(OC)c(Br)cc([N+](=O)[O-])c1OC	7.77
Cc1cc2cc3c(cc2nc1SCC(=O)Nc1ccccc1)CCC3	3.4
Cc1cccc(NC(=S)N2CCCCC2)c1	0.732
O=Cc1ccc(N2Cc3ccccc3C2)cc1	13
Cc1coc2c(O)cc3c(c12)OC1(N2CCCCC2)C(=O)NCCCC31 (stereo not shown)	4.44
CC[C@H](C)[C@@H]1NC(=O)c2cc([N+](=O)[O-])cc(F)c2NCCCC[C@@H](C(N)=O)NC(=O)[C@H](CCCCN)NC1=O	12.6
CCOC(=O)NC(=O)c1cn(CCNCCO)c(=O)[nH]c1=O	7.96
CCOc1ccc(NC(=O)c2cccc3c2C(=O)N(Cc2cccnc2)C3)cc1	-0.0027
Cc1cc(C)c(S(=O)(=O)Nc2cnc3ccccc3c2)c(C)c1	13.3
Cc1ccccc1NC(=O)Cc1nc(COC(=O)c2nc(Cl)ccc2Cl)cs1	-6.18
O=C(Cc1ccccc1)Nc1ccc2oc(-c3ccncc3)nc2c1	6.04
COc1cccc(C(=O)Nc2nc3ccccc3[nH]2)c1	5.44
Cc1ccc(-c2nnc(CCC(=O)NCC3C4CC5CC(C4)CC3C5)o2)s1 (stereo not shown)	7.52

SMILES	hERG current change (%, negative = inhibition) at 1uM [%]
COC(=O)CCNS(=O)(=O)c1ccc2ccccc2c1	11.7
O=C(CCCCCN1C(=O)c2ccccc2C1=O)NCCc1nc2ccccc2[nH]1	12.4
COc1ccc2c3c(cccc13)N(C)N=C2C	3.57
CCOc1ccc(NS(=O)(=O)c2ccc(C(=O)NCC(c3ccccc3OC)N3CCCC3)cc2)cc1 (stereo not shown)	1.53
CCN(CC)CCCNC(=O)c1cc2nc(-c3ccccc3)cc(C(F)(F)F)n2n1	14.7
CC(C)CCNC(=O)c1sc2ccc(S(=O)(=O)N3CCCCC3)cc2c1N	10.9
CC(=O)c1ccc(OCCCC(=O)Nc2cc(S(=O)(=O)N(C)C)ccc2C)cc1	5.23
COc1cc(C2C(C#N)=C(N)OC3=C2C(=O)CCC3)ccc1OC(=O)N1CCOCC1 (stereo not shown)	5.59
COc1ccc(OCC(=O)Nc2cc(-c3nn(C)c(=O)c4ccccc34)ccc2N2CCOCC2)cc1	9.48
COc1ccc(Cl)cc1S(=O)(=O)N1CCCC1	8.04
CC(Cc1ccccc1)C(=O)Nc1ccccc1 (stereo not shown)	8.95
CCCNC(=O)c1ccc(Cn2cc(-c3ccc(OC)cc3)nc2C(C)N)cc1 (stereo not shown)	13.5
CCCn1cccc(C(=O)Nc2ccc(OC)cc2)c1=O	2.25
COc1ccc(NC(=O)CN2CCC(C)CC2)c([N+](=O)[O-])c1	1.92
CC(C)C(=O)N1CC(=O)Nc2ccc(F)cc2C1c1ccc(F)cc1 (stereo not shown)	4.63
O=C(NCCNC(=O)c1cnccn1)c1ccc(Cl)cc1	0.0873
COc1cccc(C(=O)CSc2nnc(-c3cccs3)o2)c1	3.99
COC(=O)C1=C(C)NC2=C(C(=O)CCC2)C1c1coc2ccccc2c1=O (stereo not shown)	5.33
CCc1ccc(C2=C/C(=C/c3cccnc3)C(=O)O2)cc1	9.95
Cc1ccccc1NC(=O)Nc1nnc(Cc2ccc([N+](=O)[O-])cc2)s1	4.28
O=C(CSc1ccc2nnc(-c3ccccn3)n2n1)Nc1ccccc1C(F)(F)F	-3.76
Cc1ccc(-c2noc(-c3ccccc3F)n2)cc1	16.3

SMILES	hERG current change (%, negative = inhibition) at 1uM [%]
CCCCN1C2CCCC1CC(NC(=O)c1cccc(Cl)c1)C2 (stereo not shown)	-63
O=C(CN1C(=O)NC2(CCCC2)C1=O)OCc1c(F)cccc1Cl	11.9
CCN(CC)C(=O)N1CCN(S(=O)(=O)c2ccc(C)cc2)CC1	-12.5
O=C(c1ccc(F)c([N+](=O)[O-])c1)N1CC2CC(C1)c1cccc(=O)n1C2 (stereo not shown)	14
CC(C)[C@H]1CN(C)CCN1Cc1cn(C)nc1-c1cccc(Cl)c1	12.3
O=[N+]([O-])c1ccc(N2CCOCC2)c(S(=O)(=O)N2CCOCC2)c1	3.84
O=C1N/C(=N/N=C/c2ccccc2O)SC1Cc1ccc(F)cc1 (stereo not shown)	16.3
O=C(O)CCN1C(=O)c2ccc(NC(=O)CSc3ccc(Cl)cc3)cc2C1=O	15.8
C=CCNC(=O)c1c[nH]c2ccc(S(=O)(=O)N(C)c3ccc(OCC)cc3)cc2c1=O	11.9
CC(C)N(CCNC(=O)C1CCCN(c2ncnc3c2nc2n3CCCCC2)C1)Cc1ccccc1 (stereo not shown)	2.71
Cc1cn(S(=O)(=O)c2ccc(Cl)cc2)c(C)n1	-2.82
Cc1noc(C)c1CSc1nnc(-c2ccccc2)o1	14.1
O=S(=O)(c1ccc(OCC(O)CNC23CC4CC(CC(C4)C2)C3)c(Cl)c1)N1CCOCC1 (stereo not shown)	20
CCOC(=O)c1[nH]c(C)c(C(=O)OCc2c(C)noc2C)c1C	-0.753
CC1CC(C)CN(C(=O)c2cccc(S(=O)(=O)Nc3cc(C(F)(F)F)ccc3Cl)c2)C1 (stereo not shown)	-0.559
CC(=O)c1ccc(S(=O)(=O)Nc2ccc(N3CCOCC3)cc2)cc1	5.7
COc1ccc(S(=O)(=O)N2CCOC2CNC(=O)C(=O)NCCN2CCOCC2)cc1C (stereo not shown)	1.23
O=C(CNc1ccc2ccccc2c1)N/N=C/c1ccccn1	5.33
CCOC(=O)CNC(=O)c1cn(CC)c(=O)c2cc(OC)c(OC)cc12	11.6
Cc1cc(C)n2c3c(c(C#N)c2n1)CCCC3	12.4
Nc1c(C=C2C=CC(=O)C=C2)c(=O)nc2snc(SCc3ccccc3)n12	11.4
O=[N+]([O-])c1ccccc1S(=O)(=O)Nc1ccc(S(=O)(=O)N2CCOCC2)cc1	15.9
